According to publication PMC11911400, “Mechanism of ASF1 engagement by CDAN1” (Nature Communications, 2025):
Numbering of substitutions follows the chain as printed. These are yes or no findings as the source states them, for the method shown. Binding seen in cells or lysates may run through a third protein. Some entries that bind do so weakly or less than the wild type.

Columns and labels:
[1] = molecular target: T1, Strep-CDAN1 BDA1* (M824A/R825A/K826A) (human) (UniProt Q8IWY9); test: pull-down; Strep-Tactin pulldown of transiently transfected ST-CDAN1 variants from Flp-In 293 T-REx lysates; endogenous ASF1A, ASF1B and CDIN1 detected by immunoblotting; IP buffer with 1% Triton X-100, 1 hr at 4 °C
T1 sequence: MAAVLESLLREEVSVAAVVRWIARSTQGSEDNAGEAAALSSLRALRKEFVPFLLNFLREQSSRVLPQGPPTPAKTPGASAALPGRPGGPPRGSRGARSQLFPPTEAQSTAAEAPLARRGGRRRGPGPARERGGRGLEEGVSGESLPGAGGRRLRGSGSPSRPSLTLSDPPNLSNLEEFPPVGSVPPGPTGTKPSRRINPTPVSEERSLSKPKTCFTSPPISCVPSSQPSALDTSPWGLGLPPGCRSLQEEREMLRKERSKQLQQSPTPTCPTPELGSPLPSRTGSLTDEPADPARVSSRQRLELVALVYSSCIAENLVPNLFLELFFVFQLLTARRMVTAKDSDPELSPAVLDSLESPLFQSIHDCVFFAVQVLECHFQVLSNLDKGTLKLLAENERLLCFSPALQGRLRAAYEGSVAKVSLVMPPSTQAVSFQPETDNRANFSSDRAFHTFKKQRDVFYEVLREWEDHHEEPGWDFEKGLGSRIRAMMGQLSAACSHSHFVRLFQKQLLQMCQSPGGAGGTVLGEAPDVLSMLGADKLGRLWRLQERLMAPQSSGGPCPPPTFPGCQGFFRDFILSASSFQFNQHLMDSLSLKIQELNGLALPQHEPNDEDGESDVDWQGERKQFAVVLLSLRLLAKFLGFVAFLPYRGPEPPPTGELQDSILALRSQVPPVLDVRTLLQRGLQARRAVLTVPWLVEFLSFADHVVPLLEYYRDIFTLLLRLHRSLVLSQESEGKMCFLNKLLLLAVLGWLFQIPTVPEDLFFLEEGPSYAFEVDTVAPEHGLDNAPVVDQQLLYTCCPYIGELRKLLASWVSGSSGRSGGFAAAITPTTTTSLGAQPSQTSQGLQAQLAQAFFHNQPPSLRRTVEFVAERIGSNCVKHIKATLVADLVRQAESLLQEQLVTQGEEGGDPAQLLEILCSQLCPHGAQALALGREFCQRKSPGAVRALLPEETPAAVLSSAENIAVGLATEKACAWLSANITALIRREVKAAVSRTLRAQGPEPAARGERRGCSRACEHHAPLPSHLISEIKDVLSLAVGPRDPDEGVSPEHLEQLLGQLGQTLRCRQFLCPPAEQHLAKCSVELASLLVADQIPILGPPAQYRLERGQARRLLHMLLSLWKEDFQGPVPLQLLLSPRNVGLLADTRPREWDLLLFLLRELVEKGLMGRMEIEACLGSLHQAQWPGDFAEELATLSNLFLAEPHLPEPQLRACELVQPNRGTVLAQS

[2] = molecular target: T2, BDA1* HMHA2* ST-CDAN1 (human) (UniProt Q8IWY9); test: as above
T2 sequence: T1 sequence with R251A, R255A, R258A

B1: FLAG-tagged CDIN1 (F-CDIN1) (natural protein, UniProt Q9Y2V0 1-281, looked up)
chain: MILTKAQYDEIAQCLVSVPPTRQSLRKLKQRFPSQSQATLLSIFSQEYQKHIKRTHAKHHTSEAIESYYQRYLNGVVKNGAAPVLLDLANEVDYAPSLMARLILERFLQEHEETPPSKSIINSMLRDPSQIPDGVLANQVYQCIVNDCCYGPLVDCIKHAIGHEHEVLLRDLLLEKNLSFLDEDQLRAKGYDKTPDFILQVPVAVEGHIIHWIESKASFGDECSHHAYLHDQFWSYWNRFGPGLVIYWYGFIQELDCNRERGILLKACFPTNIVTLCHSIA
notes: C15orf41); cDNA synthesized by IDT; source: Expi293, transiently transfected, in lysate and purified in complexes (anti-FLAG, Strep-Tactin); not shown: 3xFLAG, N-terminal, kept
binding [1]: binds
binding [2]: binds
